# Some of the results follow.
# B1: PX14343H-pdi-506-26-506 (Parabacteroides distasonis) (protein)
# chain: QPTGTMTTDSKLTSKESALALTNSAYLKNTVFNKMTPGWGCNTILLLEYMTGKATSENSQSNYKDFQDLLVSDRSLYIEDWWQDCYAGIANCNLALQKLGEFENLDASLVNGYMAEVKFMRALYYFYLVRIFGDVPKITTVQSELGELQVSRAPVKEIYDEIIIPDLLEAEQSDLAFSDHTGRVSMGAVKALLADVYLTYAGYPLQGGKSYYAESAKRSLEVIKSNEYTLFTDYESLRLPSQNNKGEFIYQVQFSLNKRHNESVRIFLPSRSGISAYDLEYGSLIPTKEFVESFEKGDKRTEEKQYFFTNYKGHPSKFSPGAAELEFMDLNGYYIYKFFDQVAVDNTAKSDLNWSVYRYTDVLLMYAEAQVNADGTPNQQSIDIVNQIRGRAGLAPFKQTNASAFLEEVWDQRYFDLCYENKMWFDMLRTRKIRDDKSGEYVDFIGYKTNWGKVYTETQLLFPIPLSERQANPNLTQNQGY
# Tests used:
# Test in all cases: glycan array binding signal (z-score within array); higher = stronger binding
# Conditions in all cases: glycan notation: IUPAC condensed, linker removed
# [1] = molecular target: Neu5Ac(a2-6)GlcNAc(b1-4)GlcNAc(b1-4)GlcNAc
# Outline: (§1)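 From the Consortium for Functional Glycomics database, 3228 arrays were curated, keeping only those whose protein sequence was available. Binding is given as a within-array Z-score averaged across arrays sharing a protein sequence and across linkers. Negative Z-scores can be read as non-binding.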
# Neu5Ac(a2-8)Neu5Ac = molecular target: Neu5Ac(a2-8)Neu5Ac
# Outline: as §1
# [2] = molecular target: Neu5Ac(a2-8)Neu5Ac(a2-3)Gal(b1-3)GalNAc(b1-4)[Neu5Ac(a2-3)]Gal(b1-4)Glc
# Outline: as §1
# [3] = molecular target: Neu5Ac(a2-8)Neu5Ac(a2-3)Gal(b1-3)GalNAc(b1-4)[Neu5Ac(a2-8)Neu5Ac(a2-3)]Gal(b1-4)Glc
# Outline: as §1
# [4] = molecular target: Neu5Ac(a2-8)Neu5Ac(a2-3)Gal(b1-4)Glc
# Outline: as §1
# [5] = molecular target: Neu5Ac(a2-8)Neu5Ac(a2-3)Gal(b1-4)GlcNAc
# Outline: as §1
# [6] = molecular target: Neu5Ac(a2-8)Neu5Ac(a2-3)[Gal(b1-3)GalNAc(b1-4)]Gal(b1-4)Glc
# Outline: as §1
# [7] = molecular target: Neu5Ac(a2-8)Neu5Ac(a2-3)[GalNAc(b1-4)]Gal(b1-4)Glc
# Outline: as §1
# [8] = molecular target: Neu5Ac(a2-8)Neu5Ac(a2-8)Neu5Ac
# Outline: as §1
# [9] = molecular target: Neu5Ac(a2-8)Neu5Ac(a2-8)Neu5Ac(a2-3)Gal(b1-4)Glc
# Outline: as §1
# [10] = molecular target: Neu5Ac(a2-8)Neu5Ac(a2-8)Neu5Ac(a2-3)[Gal(b1-3)GalNAc(b1-4)]Gal(b1-4)Glc
# Outline: as §1
# [11] = molecular target: Neu5Ac(a2-8)Neu5Ac(a2-8)Neu5Ac(a2-3)[GalNAc(b1-4)]Gal(b1-4)Glc
# Outline: as §1
# [12] = molecular target: Neu5Ac(a2-8)Neu5Ac(a2-8)Neu5Ac(a2-8)Neu5Ac(a2-3)[GalNAc(b1-4)]Gal(b1-4)Glc
# Outline: as §1
# [13] = molecular target: Neu5Ac(a2-8)Neu5Gc(a2-3)Gal(b1-4)GlcNAc
# Outline: as §1
# [14] = molecular target: Neu5Ac(b2-6)Gal(b1-4)GlcNAc
# Outline: as §1
# Neu5Ac(b2-6)GalNAc = molecular target: Neu5Ac(b2-6)GalNAc
# Outline: as §1
# [15] = molecular target: Neu5Ac9Ac(a2-3)Gal(b1-3)GlcNAc
# Outline: as §1
# [16] = molecular target: Neu5Ac9Ac(a2-3)Gal(b1-4)GlcNAc
# Outline: as §1
# [17] = molecular target: Neu5Ac9Ac(a2-6)Gal(b1-4)GlcNAc
# Outline: as §1
# [18] = molecular target: Neu5Gc(a2-3)Gal(b1-3)GlcNAc
# Outline: as §1
# [19] = molecular target: Neu5Gc(a2-3)Gal(b1-3)[Fuc(a1-4)]GlcNAc
# Outline: as §1
# Neu5Gc(a2-3)Gal(b1-4)Glc = molecular target: Neu5Gc(a2-3)Gal(b1-4)Glc
# Outline: as §1
# [20] = molecular target: Neu5Gc(a2-3)Gal(b1-4)GlcNAc
# Outline: as §1
# [21] = molecular target: Neu5Gc(a2-3)Gal(b1-4)GlcNAc(b1-3)Gal(b1-4)GlcNAc(b1-2)Man(a1-3)[Neu5Gc(a2-3)Gal(b1-4)GlcNAc(b1-3)Gal(b1-4)GlcNAc(b1-2)Man(a1-6)]Man(b1-4)GlcNAc(b1-4)GlcNAc
# Outline: as §1
# [22] = molecular target: Neu5Gc(a2-3)Gal(b1-4)[Fuc(a1-3)]GlcNAc
# Outline: as §1
# [23] = molecular target: Neu5Gc(a2-6)Gal(b1-4)GlcNAc
# Outline: as §1
# Neu5Gc(a2-6)GalNAc = molecular target: Neu5Gc(a2-6)GalNAc
# Outline: as §1
# [24] = molecular target: Neu5Gc(a2-8)Neu5Ac(a2-3)Gal(b1-4)GlcNAc
# Outline: as §1
# [25] = molecular target: Neu5Gc(a2-8)Neu5Gc(a2-3)Gal(b1-4)GlcNAc
# Outline: as §1
# [26] = molecular target: Neu5Gc(a2-8)Neu5Gc(a2-3)Gal(b1-4)GlcNAc(b1-3)Gal(b1-4)GlcNAc
# Outline: as §1
# [27] = molecular target: Neu5Gc(a2-8)Neu5Gc(a2-6)Gal(b1-4)GlcNAc
# Outline: as §1
# [28] = molecular target: Neu5Gc(b2-6)Gal(b1-4)GlcNAc
# Outline: as §1
binder,measurement,setting,value
B1,glycan array binding signal (z-score),[1],-0.342
same,glycan array binding signal (z-score),Neu5Ac(a2-8)Neu5Ac,-0.264
same,glycan array binding signal (z-score),[2],-0.227
same,glycan array binding signal (z-score),[3],-0.438
same,glycan array binding signal (z-score),[4],-0.39
same,glycan array binding signal (z-score),[5],-0.418
same,glycan array binding signal (z-score),[6],0.228
same,glycan array binding signal (z-score),[7],-0.202
same,glycan array binding signal (z-score),[8],-0.249
same,glycan array binding signal (z-score),[9],-0.373
same,glycan array binding signal (z-score),[10],-0.24
same,glycan array binding signal (z-score),[11],0.165
same,glycan array binding signal (z-score),[12],1.64
same,glycan array binding signal (z-score),[13],2.83
same,glycan array binding signal (z-score),[14],-0.315
same,glycan array binding signal (z-score),Neu5Ac(b2-6)GalNAc,0.072
same,glycan array binding signal (z-score),[15],-0.407
same,glycan array binding signal (z-score),[16],-0.452
same,glycan array binding signal (z-score),[17],-0.404
same,glycan array binding signal (z-score),[18],-0.48
same,glycan array binding signal (z-score),[19],-0.415
same,glycan array binding signal (z-score),Neu5Gc(a2-3)Gal(b1-4)Glc,-0.422
same,glycan array binding signal (z-score),[20],-0.388
same,glycan array binding signal (z-score),[21],-0.486
same,glycan array binding signal (z-score),[22],-0.382
same,glycan array binding signal (z-score),[23],-0.19
same,glycan array binding signal (z-score),Neu5Gc(a2-6)GalNAc,-0.227
same,glycan array binding signal (z-score),[24],-0.357
same,glycan array binding signal (z-score),[25],-0.467
same,glycan array binding signal (z-score),[26],-0.308
same,glycan array binding signal (z-score),[27],-0.346
same,glycan array binding signal (z-score),[28],1.27
